The results in this text go back to publication PMC9911399, “Two distinct binding modes provide the RNA-binding protein RbFox with extraordinary sequence specificity”.

The labels stand for the following.
B1: CCGACCG (DNA:RNA)
RNA: GGGAGACCGGAAUUCAGAUUGUCCCCGACCGUUAAAUCCCGUCGUAGCCACCA
DNA 1: CAATCTGAATTCCGGTCTCCC
DNA 2: TGGTGGCTACGACGGGATT
B2: AGAACAA (DNA:RNA)
RNA: B1 RNA with C25A, C26G, G27A, C30A, G31A
DNA 1: CAATCTGAATTCCGGTCTCCC
DNA 2: TGGTGGCTACGACGGGATT
B3: CGGGGUG (DNA:RNA)
RNA: B1 RNA with C26G, A28G, C29G, C30U
DNA 1: CAATCTGAATTCCGGTCTCCC
DNA 2: TGGTGGCTACGACGGGATT
B4: CGUACCG (DNA:RNA)
RNA: B1 RNA with C26G, G27U
DNA 1: CAATCTGAATTCCGGTCTCCC
DNA 2: TGGTGGCTACGACGGGATT
B5: AGGCUUU (DNA:RNA)
RNA: B1 RNA with C25A, C26G, A28C, C29U, C30U, G31U
DNA 1: CAATCTGAATTCCGGTCTCCC
DNA 2: TGGTGGCTACGACGGGATT
B6: CAGCCUU (DNA:RNA)
RNA: B1 RNA with C26A, A28C, C30U, G31U
DNA 1: CAATCTGAATTCCGGTCTCCC
DNA 2: TGGTGGCTACGACGGGATT
B7: GUGGAGA (DNA:RNA)
RNA: B1 RNA with C25G, C26U, A28G, C29A, C30G, G31A
DNA 1: CAATCTGAATTCCGGTCTCCC
DNA 2: TGGTGGCTACGACGGGATT
B8: ACUACCA (DNA:RNA)
RNA: B1 RNA with C25A, G27U, G31A
DNA 1: CAATCTGAATTCCGGTCTCCC
DNA 2: TGGTGGCTACGACGGGATT
B9: UAUCGAA (DNA:RNA)
RNA: GGGAGACCGGAAUUCAGAUUGUCCUAUCGAAUUAAAUCCCGUCGUAGCCACCA
DNA 1: CAATCTGAATTCCGGTCTCCC
DNA 2: TGGTGGCTACGACGGGATT
B10: CCCAUUG (DNA:RNA)
RNA: B1 RNA with G27C, C29U, C30U
DNA 1: CAATCTGAATTCCGGTCTCCC
DNA 2: TGGTGGCTACGACGGGATT
B11: CAGAAGA (DNA:RNA)
RNA: B1 RNA with C26A, C29A, C30G, G31A
DNA 1: CAATCTGAATTCCGGTCTCCC
DNA 2: TGGTGGCTACGACGGGATT
B12: AUGACCG (DNA:RNA)
RNA: B1 RNA with C25A, C26U
DNA 1: CAATCTGAATTCCGGTCTCCC
DNA 2: TGGTGGCTACGACGGGATT
B13: GUUCCCC (DNA:RNA)
RNA: B1 RNA with C25G, C26U, G27U, A28C, G31C
DNA 1: CAATCTGAATTCCGGTCTCCC
DNA 2: TGGTGGCTACGACGGGATT
B14: AAAACAG (DNA:RNA)
RNA: B1 RNA with C25A, C26A, G27A, C30A
DNA 1: CAATCTGAATTCCGGTCTCCC
DNA 2: TGGTGGCTACGACGGGATT
B15: GGCCAAA (DNA:RNA)
RNA: B9 RNA with U25G, A26G, U27C, G29A
DNA 1: CAATCTGAATTCCGGTCTCCC
DNA 2: TGGTGGCTACGACGGGATT
B16: CAUUCCA (DNA:RNA)
RNA: B1 RNA with C26A, G27U, A28U, G31A
DNA 1: CAATCTGAATTCCGGTCTCCC
DNA 2: TGGTGGCTACGACGGGATT
B17: GCGGCCG (DNA:RNA)
RNA: B1 RNA with C25G, A28G
DNA 1: CAATCTGAATTCCGGTCTCCC
DNA 2: TGGTGGCTACGACGGGATT
B18: CUCGCGC (DNA:RNA)
RNA: B1 RNA with C26U, G27C, A28G, C30G, G31C
DNA 1: CAATCTGAATTCCGGTCTCCC
DNA 2: TGGTGGCTACGACGGGATT
B19: ACGGGGA (DNA:RNA)
RNA: B1 RNA with C25A, A28G, C29G, C30G, G31A
DNA 1: CAATCTGAATTCCGGTCTCCC
DNA 2: TGGTGGCTACGACGGGATT
B20: AACUGAG (DNA:RNA)
RNA: B9 RNA with U25A, U27C, C28U, A31G
DNA 1: CAATCTGAATTCCGGTCTCCC
DNA 2: TGGTGGCTACGACGGGATT

Positions count from the first letter of the chain named. Some of the results follow.

This test has as its target T1, RBFOX1 RRM (Homo sapiens, UniProt Q9NWB1 109-208).
T1 sequence: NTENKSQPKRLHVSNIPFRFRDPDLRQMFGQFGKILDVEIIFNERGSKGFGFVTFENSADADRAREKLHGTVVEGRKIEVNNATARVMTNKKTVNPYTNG
As to the kind of experiment: EMSA; HiTS-Eq, 1 nM pool, 10 min; buffer printed only for the single-RNA assays: 10 mM Tris pH 7.5, 150 mM NaCl, 3.4 mM EDTA, 0.001% NP-40, 30 C. Conditions: tags: His6 N-terminal (pET28a); label: 5' 32P. In short, it runs like this: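 A pool of RNA with 7 randomized nucleotides, 5′-radiolabelled and with DNA-annealed flanks, was equilibrated at 1 nM for 10 min in 50 µL with purified RbFox RRM, wild type or mutant, across increasing protein concentrations. Free RNA was separated by 8% native PAGE, excised, reverse-transcribed, barcoded by PCR and sequenced. Relative association constants were obtained from read-count changes of each RNA species versus the control reaction and normalised to the cognate motif.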
Consider B1, for which the binding signal is 0.01 KA relative to UGCAUGU. On to B2, for which the binding signal is 0.00126 KA relative to UGCAUGU. In the case of B3, the binding signal was 0.0399 KA relative to UGCAUGU. Under B4 stands 0.00274 KA relative to UGCAUGU. Under B5 stands 0.0128 KA relative to UGCAUGU; under B6, 0.00524 KA relative to UGCAUGU; under B7, 0.0173 KA relative to UGCAUGU.

For B8, the binding signal is 0.00339 KA relative to UGCAUGU.

For the molecule B9, the binding signal was 0.0125 KA relative to UGCAUGU. With B10 the figure was 0.00626 KA relative to UGCAUGU; with B11, 0.00599 KA relative to UGCAUGU; with B12, 0.00982 KA relative to UGCAUGU. Under B13 stands 0.00516 KA relative to UGCAUGU; under B14, 0.000298 KA relative to UGCAUGU.

For the molecule B15, the binding signal is 0.00186 KA relative to UGCAUGU. In the case of B16, the binding signal was 0.000288 KA relative to UGCAUGU. For B17, the binding signal was 0.0202 KA relative to UGCAUGU. With B18 the figure was 0.00969 KA relative to UGCAUGU; with B19, 0.0118 KA relative to UGCAUGU. With B20 the figure was 0.00736 KA relative to UGCAUGU.
